The assay concerns the target GST-uL16 (E. coli BL21, UniProt P0ADY7). As to the kind of experiment: pull-down; GST-uL16 (0.5 mg) immobilised on Glutathione Sepharose 4B, incubated with YjgA or mutant protein (1 mg) in 1 ml pull-down buffer (20 mM Tris-HCl pH 8.0, 150 mM NaCl, 10% glycerol) for 2 h at 4°C; washed three times, eluted with 15 mM reduced glutathione, SDS-PAGE. The settings on record: both partners purified.

B1: YjgA-D15A (natural protein)
chain: not shown
notes: YjgA, E. coli, 183 amino acids, point mutant D15A; made from pET28a-YjgA-FL; source: E. coli BL21 ΔyjgA, purified (Ni-NTA)
Turning to B1, the binding result was “binds”.

The record behind these values is paper PMC11260487, “YjgA plays dual roles in enhancing PTC maturation” (Nucleic Acids Research, 2024).
